Results on ten molecules are retold here after PMC2648964, “Molecular Basis for the Sorting of the SNARE VAMP7 into Endocytic Clathrin-Coated Vesicles by the ArfGAP Hrb” (Cell, 2008).

The chains behind the UniProt entries cited, without tags or fusion partners. Where a name states a change or a piece, a line headed by the entry shows the natural chain unless it says otherwise. A line that says so, or that is headed by a name, gives the form on record, which may keep a tag or linker. Residues count along the entry.
GST-VAMP7 full-length wild-type cytoplasmic domain (not stated (human or mouse cDNA cloned)) (P51809, residues 1-188): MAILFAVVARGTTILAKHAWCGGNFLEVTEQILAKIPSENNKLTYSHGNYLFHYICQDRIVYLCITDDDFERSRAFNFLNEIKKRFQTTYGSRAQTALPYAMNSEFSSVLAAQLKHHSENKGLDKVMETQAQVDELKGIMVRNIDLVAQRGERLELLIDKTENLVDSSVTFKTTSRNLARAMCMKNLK
GST-VAMP7 whole cytoplasmic domain (I139S/M140S/I144S) triple mutant (not stated (human or mouse cDNA cloned)) (P51809, form named): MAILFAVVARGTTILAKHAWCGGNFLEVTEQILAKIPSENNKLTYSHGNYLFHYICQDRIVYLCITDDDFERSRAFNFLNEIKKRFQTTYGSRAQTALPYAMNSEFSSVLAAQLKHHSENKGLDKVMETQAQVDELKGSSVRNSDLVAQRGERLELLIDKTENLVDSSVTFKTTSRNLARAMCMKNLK
VAMP7 longin domain, GST tag removed (P70280, residues 1-120): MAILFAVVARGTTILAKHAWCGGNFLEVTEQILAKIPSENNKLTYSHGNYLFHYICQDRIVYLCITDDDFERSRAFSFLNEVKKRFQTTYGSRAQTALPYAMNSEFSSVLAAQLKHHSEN
VAMP7 longin domain L43S/Y45S, GST tag removed (P70280, form named): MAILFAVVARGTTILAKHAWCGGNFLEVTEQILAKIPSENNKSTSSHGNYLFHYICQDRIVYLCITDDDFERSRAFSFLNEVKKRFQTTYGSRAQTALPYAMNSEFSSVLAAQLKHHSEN
UniProt Q12846, residues 201-266: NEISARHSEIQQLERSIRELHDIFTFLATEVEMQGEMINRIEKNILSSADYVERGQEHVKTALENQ

Substitutions are numbered along the chain they refer to. Names may count otherwise. These are yes or no findings as the source states them, for the method shown. For some of these results: In cells and extracts the contact can be indirect. Some entries that bind do so weakly or less than the wild type. For some of these results: Sequences can lack the tags named with a protein.

The target of test [1] is GST-VAMP7 full-length wild-type cytoplasmic domain (not stated (human or mouse cDNA cloned)) (UniProt P51809). The test is described as follows: pull-down; assembly of the SNARE complex: GST-VAMP7(1-188), His6syntaxin4 (201-266) and SNAP23 (1-210) at 1:4:4, 4°C, 48 hr, 20 mM HEPES pH 7.5, 200 mM NaCl, 0.1% IGEPAL; collected on GST beads, washed three times; densitometry of a Coomassie-stained gel; both purified.

The target in test [2] is VAMP7 longin domain His6, the VAMP7 part of the chimeric protein (not stated (human or mouse cDNA cloned)) (UniProt P70280). The test is described as follows: crystal structure; chimeric Hrb(136-176)/VAMP7 LDHis6, SIRAS, 2.2 Å, space group P2(1)2(1)2, four molecules in the asymmetric unit; both purified.
Test [3] concerns the target T1, Sec22b longin domain (residues 1-127), yeast two-hybrid fusion (mouse) (UniProt O08547).
T1 sequence: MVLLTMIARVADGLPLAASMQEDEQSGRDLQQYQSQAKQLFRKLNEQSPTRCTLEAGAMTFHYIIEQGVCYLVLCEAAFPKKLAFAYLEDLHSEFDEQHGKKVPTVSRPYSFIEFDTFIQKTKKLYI
The test is described as follows: two-hybrid; directed test of GAL4 binding-domain and activation-domain fusions in diploid PJ69-4A; growth on medium lacking adenine; the Hrb DNA-binding-domain construct autoactivates.

Test [4] addresses VAMP7 longin domain (1-120), yeast two-hybrid fusion (not stated (human or mouse cDNA cloned)) (UniProt P70280). The description is as above.
In test [5] the target is T2, Ykt6 longin domain (residues 1-132), yeast two-hybrid fusion (mouse) (UniProt Q9CQW1).
T2 sequence: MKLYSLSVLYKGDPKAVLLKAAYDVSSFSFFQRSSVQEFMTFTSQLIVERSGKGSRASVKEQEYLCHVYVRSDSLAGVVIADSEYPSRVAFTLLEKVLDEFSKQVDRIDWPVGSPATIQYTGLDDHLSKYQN
The test is described as above.

In test [6] the target is GST-VAMP7 longin domain (mouse) (UniProt P70280). The test is described as follows: pull-down; GST-tagged bait with His6-tagged prey in PBS or 20 mM HEPES pH 7.5, 200 mM NaCl, 0.1% IGEPAL; 4°C, 1 hr; three washes; immunoblot with anti-His6; both purified.
The target of test [7] is T3, GST-Sec22b longin domain (mouse) (UniProt O08547).
T3 sequence: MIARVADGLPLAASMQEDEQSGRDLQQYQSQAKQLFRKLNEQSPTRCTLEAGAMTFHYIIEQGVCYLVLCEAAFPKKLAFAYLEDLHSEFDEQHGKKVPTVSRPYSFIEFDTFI
The test can be described thus: pull-down; GST-tagged bait on glutathione beads with A431 cell cytosol; 4°C, 1 hr; five washes with 0.1% IGEPAL; immunoblot with anti-Hrb; only the target purified.

Test [8] addresses GST-VAMP7 longin domain (mouse) (UniProt P70280). The description is as above.
The target of test [9] is VAMP7 longin domain L43S/Y45S, GST tag removed (mouse) (UniProt P70280). The test is described as follows: ITC; VAMP7 longin domain (1.4 ml, 0.15-0.2 mM) in the cell, Hrb at 1.5-2 mM titrated in 30-40 injections of 4-8 μl; all GST tags removed; both purified.
For test [10], the target named is GST-VAMP7 whole cytoplasmic domain (I139S/M140S/I144S) triple mutant (not stated (human or mouse cDNA cloned)) (UniProt P51809). The test is described as follows: pull-down; GST-tagged bait with His6-tagged prey in PBS or 20 mM HEPES pH 7.5, 200 mM NaCl, 0.1% IGEPAL; 4°C, 1 hr; three washes; immunoblot with anti-His6; both purified. (In general: In western blotting, separated proteins are transferred to a membrane and probed.)

In test [11] the target is VAMP7 SNARE complex: GST-VAMP7(1-188), His6syntaxin4 (201-266) and SNAP23 (1-210) (not stated (human or mouse cDNA cloned) | not stated) (UniProt P51809+Q12846+O00161). The description is as above.
In test [12] the target is VAMP7 longin domain, GST tag removed (mouse) (UniProt P70280). The test is described as follows: ITC; VAMP7 longin domain (1.4 ml, 0.15-0.2 mM) in the cell, Hrb at 1.5-2 mM titrated in 30-40 injections of 4-8 μl; all GST tags removed; both purified. (In general: ITC needs no label: the signal is the heat of the interaction.)

Turning to “His6syntaxin4 (201-266) (from UniProt Q12846 201-266) (domain or fragment)”, in [1], the binding entry is recorded as “binds”.

Consider VASVHASISGSSASSTSSTPEVKPLKSLLGDSAPTLHLNKG (domain or fragment, UniProt P52594-1 136-176) [Hrb(136-176), the Hrb part of the chimeric protein], for which the binding result in [2] is “binds”.

B1: full-length Hrb, yeast two-hybrid fusion (protein, UniProt P52594-1 1-562)
chain: MAASAKRKQEEKHLKMLRDMTGLPHNRKCFDCDQRGPTYVNMTVGSFVCTSCSGSLRGLNPPHRVKSISMTTFTQQEIEFLQKHGNEVCKQIWLGLFDDRSSAIPDFRDPQKVKEFLQEKYEKKRWYVPPEQAKVVASVHASISGSSASSTSSTPEVKPLKSLLGDSAPTLHLNKGTPSQSPVVGRSQGQQQEKKQFDLLSDLGSDIFAAPAPQSTATANFANFAHFNSHAAQNSANADFANFDAFGQSSGSSNFGGFPTASHSPFQPQTTGGSAASVNANFAHFDNFPKSSSADFGTFNTSQSHQTASAVSKVSTNKAGLQTADKYAALANLDNIFSAGQGGDQGSGFGTTGKAPVGSVVSVPSQSSASSDKYAALAELDSVFSSAATSSNAYTSTSNASSNVFGTVPVVASAQTQPASSSVPAPFGATPSTNPFVAAAGPSVASSTNPFQTNARGATAATFGTASMSMPTGFGTPAPYSLPTSFSGSFQQPAFPAQAAFPQQTAFSQQPNGAGFAAFGQTKPVVTPFGQVAAAGVSSNPFMTGAPTGQFPTGSSSTNPFL
In the case of B1, the binding entry in test [3] is recorded as “no binding”; in [4] it was “binds”; in [5], “no binding”.

B2: His6-tagged Hrb, bacterially expressed (protein, UniProt P52594-1 1-562)
chain: B1 chain
Regarding B2, in [6], the binding result is “binds”.

B3: endogenous Hrb from A431 cell cytosol (protein, UniProt P52594 1-562)
chain: B1 chain
As to B3, the figures for the binding result in test [7] and in test [8] were “no binding” and “binds”, respectively.

B4: Hrb(1-176) His6 (domain or fragment, UniProt P52594-1 1-176)
chain: MAASAKRKQEEKHLKMLRDMTGLPHNRKCFDCDQRGPTYVNMTVGSFVCTSCSGSLRGLNPPHRVKSISMTTFTQQEIEFLQKHGNEVCKQIWLGLFDDRSSAIPDFRDPQKVKEFLQEKYEKKRWYVPPEQAKVVASVHASISGSSASSTSSTPEVKPLKSLLGDSAPTLHLNKG
As to B4, the binding entry in [9] is “no binding (tested: >300 μM)”; in test [6], “binds”; in [10], “binds”; in test [11] it was “binds”.

B5: Hrb(1-176) His6 L163P/L164P (domain or fragment, UniProt P52594-1 1-176)
chain: B4 chain with L163P, L164P
Consider B5, for which the binding entry in [12] was “no binding (tested: >300 μM)”.

B6: Hrb(1-176) His6 L171S/L173S (domain or fragment, UniProt P52594-1 1-176)
chain: B4 chain with L171S, L173S
For the molecule B6, the binding entry in test [12] was “no binding (tested: >300 μM)”.

B7: Hrb(1-176) His6 L160S/L163S (domain or fragment, UniProt P52594-1 1-176)
chain: B4 chain with L160S, L163S
For the molecule B7, the binding entry in [12] is “no binding (tested: >300 μM)”.

B8: SNAP23 (1-210) (protein, UniProt O00161 1-210)
chain: MDNLSSEEIQQRAHQITDESLESTRRILGLAIESQDAGIKTITMLDEQKEQLNRIEEGLDQINKDMRETEKTLTELNKCCGLCVCPCNRTKNFESGKAYKTTWGDGGENSPCNVVSKQPGPVTNGQLQQPTTGAASGGYIKRITNDAREDEMEENLTQVGSILGNLKDMALNIGNEIDAQNPQIKRITDKADTNRDRIDIANARAKKLID
For the molecule B8, in test [1], the binding entry is “binds”.
